The values that follow come from paper PMC6919601, “Identification of Plasmodium dipeptidyl aminopeptidase allosteric inhibitors by high throughput screening” (PLoS ONE, 2019).

Where “and” joins values, the source holds several entries; their conditions need not be identical. Equal entries are not always repeated. Screen size: about 110,000 compounds; about 230 (0.21%) showed an effect of 50% or more. This is one part of the list.
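Further: 30 min substrate incubation versus DMSO and 10 µM JCP410 controls.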

Chain of DPAP1 (Q8IIJ9 whole entry, looked up): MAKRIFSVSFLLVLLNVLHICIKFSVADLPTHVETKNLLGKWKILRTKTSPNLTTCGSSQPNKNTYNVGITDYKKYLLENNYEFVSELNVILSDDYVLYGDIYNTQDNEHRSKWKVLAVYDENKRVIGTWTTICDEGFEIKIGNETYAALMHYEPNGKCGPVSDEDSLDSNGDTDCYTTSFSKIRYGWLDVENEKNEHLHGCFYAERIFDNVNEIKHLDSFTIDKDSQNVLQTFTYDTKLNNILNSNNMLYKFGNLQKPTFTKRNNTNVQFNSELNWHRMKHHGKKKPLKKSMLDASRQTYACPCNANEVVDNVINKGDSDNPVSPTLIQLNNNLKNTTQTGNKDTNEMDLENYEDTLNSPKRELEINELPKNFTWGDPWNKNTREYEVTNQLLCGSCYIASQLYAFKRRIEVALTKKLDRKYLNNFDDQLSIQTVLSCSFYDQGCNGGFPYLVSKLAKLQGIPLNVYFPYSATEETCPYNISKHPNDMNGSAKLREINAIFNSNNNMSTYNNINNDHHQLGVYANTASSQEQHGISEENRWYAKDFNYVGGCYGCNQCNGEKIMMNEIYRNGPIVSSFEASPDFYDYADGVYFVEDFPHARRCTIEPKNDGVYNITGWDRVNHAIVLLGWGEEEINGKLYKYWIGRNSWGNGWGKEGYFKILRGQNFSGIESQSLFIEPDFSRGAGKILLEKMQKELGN

The assay addresses DPAP1 (Plasmodium falciparum, UniProt Q8IIJ9). As to the kind of experiment: primary screen, percent inhibition; read by cleavage of a fluorogenic dipeptide substrate; higher = more effect of the substance. Set-up: species or system P. falciparum D10 trophozoite lysates; single well.
As for `COC(=O)C1=C(C)N(Cc2ccccc2)C(=O)/C1=C\c1cccc(O)c1`, the “% Inhibition @ 10 uM” value is reported as 3.43%.
For `COc1ccc(C2C(C#N)=C(N)Oc3c2c(O)nc2ccccc32)cc1` (stereo not shown), the “% Inhibition @ 10 uM” value is recorded as -4.04%.
In the case of `Cc1ccc(CNC(=O)c2ccc3nc(N4CCC(C)CC4)sc3c2)cc1`, the “% Inhibition @ 10 uM” value is on record as -0.637%.
To `Cc1cccc(N2C(=O)C(Cl)=C(Nc3ccc(F)cc3)C2=O)c1` belongs -2.45%; to `Cc1ccc(S(=O)(=O)N2CCC(C(=O)Nc3ccc(C(F)(F)F)cc3)CC2)cc1`, -6.43%.
To `COc1cc(C(=O)Nc2ccc(N(C)C(C)=O)cc2)cc(OC)c1OC` belongs -6.67%; to `CCOCCCNC(=O)NC(C)c1c(-n2cccc2)sc2c1CCN(C)C2` (stereo not shown), 3.95%.
To `O=C(NCCc1ccccc1)c1cccc2c1C(=O)N(CC1CCCO1)C2` (stereo not shown) belongs -1.03%; to `CCOC(=O)N1CCN(C(=O)c2ccc(C#CC(C)(C)O)cc2)CC1`, -1.32%; to `NC(=O)c1ccccc1NC(=O)c1cc(-c2ccccc2Cl)nc2ccccc12`, 17.8%.
As for `Cc1ccc(/C=C/C(=O)c2cc3cc(Cl)ccc3oc2=O)cc1`, the “% Inhibition @ 10 uM” value is -3.28%.
To `OCCSCc1nc(O)c2c(n1)-c1ccccc1CC21CCCCC1` belongs 6.38%; to `O=C(NCCN1CCOCC1)c1ccc(CS(=O)(=O)c2ccc(Br)cc2)o1`, -4.53%.
To `CCOC(=O)N1CCC(NC(=O)c2cc(C(=O)NCc3cccc(Cl)c3)ccc2CO)CC1` belongs -1.03%; to `O=C1c2cccc3cccc(c23)C(=O)N1CCCN1C(=O)c2cccc3cccc(c23)C1=O`, 12.1%; to `Cc1cc(C)n(CC(O)COCc2ccco2)n1` (stereo not shown), 4.05%.
To `Cc1cc(N2CCN(c3ccco3)CC2)n2nc(C)nc2n1` belongs -2.8%.
On to `Cc1ccc(-n2c(S)nnc2CN2CCSCC2)cc1`, for which the “% Inhibition @ 10 uM” value was 1.88%.
As to `O=C(CN1C(=O)c2ccccc2Sc2ncccc21)NCc1cccc(Cl)c1`, the “% Inhibition @ 10 uM” value is reported as -8.19%.
To `CC(=O)Nc1ccc(S(=O)(=O)N2CCN(Cc3ccccc3)CC2)cc1` belongs -2.44%; to `N#CC1=C(N)Oc2[nH]nc(-c3ccccn3)c2C1c1ccco1` (stereo not shown), -4.41%; to `O=C(CSc1nc2ccc(Br)cc2c2nc3ccccc3n12)Nc1nccs1`, -2.92%.
To `Oc1nc(-c2ccccc2)nc2c1oc1ccccc12` belongs 6.51%.
To `Cc1nc2ccccc2n1C/C=C/c1ccccc1` belongs 4.94%; to `Cc1cc(Cl)ccc1OCC(=O)Nc1ccc(Cl)cc1`, -5.32%.
With `Cc1cccc(C(=O)Nc2ccc(Br)cc2)c1`, the “% Inhibition @ 10 uM” value is given as -1.62%.
To `Cc1cccc(NC(=O)CCc2ccc(S(=O)(=O)NC3CCCCC3)cc2)c1` belongs 3.37%.
To `CCOc1ccc(N2C(=O)CC(NCCc3ccccc3F)C2=O)cc1` (stereo not shown) belongs 4.27%; to `O=C(c1ccccc1)N1CCN(c2ccc(NCc3ccc4c(c3)OCO4)cc2)CC1`, -5.23%; to `Cc1ccc(S(=O)(=O)N2CCN(C(=O)CN3CCCC3)C2)cc1`, 4.54%.
To `CCOc1ccc(NC(=O)Cc2ccc(Cl)cc2)cc1` belongs -1.43%.
In the case of `CCSc1nnc2n(CC)c3ccccc3n12`, the “% Inhibition @ 10 uM” value turned out to be 6.01%.
To `CCCCSc1nnc(NC(=O)Cc2coc3ccc(OC)cc23)s1` belongs -1.31%; to `CCCSc1nc(C)c(CCC(C)C)c(O)n1`, 4%; to `Cc1cc(C)c(S(=O)(=O)Nc2ccc(O)c(C(=O)O)c2)cc1C`, 2.86%.
To `CCn1cc(Cl)c(C(=O)N(C)C23CC4CC(CC(C4)C2)C3)n1` belongs 0.687%; to `N#Cc1c(Nc2ccccc2)ccnc1S`, 5.48%.
To `COc1cccc(C2C(C#N)=C(N)Oc3cc(N)ccc32)c1` (stereo not shown) belongs 1.4%; to `c1ccc(-c2nnn3c2nc(N2CCOCC2)c2ccccc23)cc1`, -2.92%.
`Cc1cc2cc(C)nn2c(N)n1`: the “% Inhibition @ 10 uM” value was -3.56%.
To `COC(=O)c1ccccc1NC(=O)c1ccc(OC(C)C)cc1` belongs 1.94%; to `CC1CCN(S(=O)(=O)c2ccc(NC(=O)Cc3ccc(Cl)cc3)cc2)CC1`, 2.4%; to `COc1cccc(OCc2ccc(C(=O)N3CCN(c4ccccc4)CC3)cc2)c1`, 2.73%.
To `Nc1c(-c2nc(-c3ccncc3)no2)nnn1-c1ccc(C(F)(F)F)c(Cl)c1` belongs 3.73%; to `Cc1cc(-c2ccco2)n(CC(=O)NCc2ccccc2Cl)n1`, -1.75%.
To `COCCNC(=O)c1cc2nc(-c3ccc(Br)cc3)cc(C(F)(F)F)n2n1` belongs -1.04%; to `CSc1nsc(SCC(=O)Nc2ccccn2)n1`, -1.15%.
Turning to `CCc1ccc(N2CC(C(=O)Nc3cccc(O)c3)CC2=O)cc1` (stereo not shown), the “% Inhibition @ 10 uM” value worked out at 1.93%.
Regarding `O=C(NCc1ccc2c(c1)OCO2)C1c2ccccc2C(=O)N(C2CCCC2)C1c1cccs1` (stereo not shown), the “% Inhibition @ 10 uM” value was -5.3%.
To `O=C(COCc1cc(-c2ccc3c(c2)OCO3)on1)Nc1cc(-c2cccc(Cl)c2)no1` belongs 1.34%.
To `O=C(Cn1cc2c(n1)CCCCC2)NC1CCCc2ccccc21` (stereo not shown) belongs 0.137%.
To `Cc1nc2c(C(=O)N3CCN(c4ccccn4)CC3)cnn2c(C)c1Cc1ccccc1Cl` belongs 2.79%.
Regarding `CCCCN(C)CCCNC(=O)C1CCC(CNS(=O)(=O)c2c(C)cc(C)cc2C)CC1` (stereo not shown), the “% Inhibition @ 10 uM” value is reported as -2.72%.
On to `O=C(O)CC(NC(=O)COc1ccccc1)c1ccccc1` (stereo not shown), for which the “% Inhibition @ 10 uM” value was found to be 8.82%.
To `CC1=C(C(=O)Nc2ccccc2F)C(c2ccc3c(c2)OCO3)C2=C(O)CC(c3ccccc3)CC2=N1` (stereo not shown) belongs -4.48%.
To `Cc1ccc(C)c(Cc2c(C)nc3c(C(=O)NC4CCC(C)CC4)cnn3c2C)c1` (stereo not shown) belongs 1.27%; to `O=C(Nc1ccc(OCC(=O)N2CCOCC2)cc1)c1ccccc1Cl`, 0.823%.
To `COc1ccc2c(c1)c1nc(SC)n(C)c(=O)c1n2C` belongs 1.7%; to `COc1ccc(CN2CCN(CCOCCO)CC2)cc1C`, -3.8%.
Consider `O=C(NCCCN1CCCC1=O)Nc1cnc2ccccn2c1=O`, for which the “% Inhibition @ 10 uM” value is on record as 5.2%.
To `COc1cc(/C=C/c2cc(C(F)(F)F)nc(O)n2)ccc1O` belongs 2.41% and -5.85%.
To `CCCn1c(-c2cccc(C)c2)nc2ccccc21` belongs 2.73%; to `COc1ccc(Cl)cc1NC(=O)CC(C(=O)O)N1CCNCC1` (stereo not shown), -9.19%; to `CCC(C(=O)N1CCN(c2ccccn2)CC1)n1nc(C)c2sc3ccccc3c2c1=O` (stereo not shown), -3.6%.
To `CN(C)CCCN(CCCN(C)C)CC1CC2C=CC1C2` (stereo not shown) belongs 0.0792%.
Consider `NS(=O)(=O)c1ccc(NC(=O)c2cccc(F)c2)cc1`, for which the “% Inhibition @ 10 uM” value is given as 0.177%.
To `CC(C)(C)c1ccc(C(=O)NCc2cccnc2)cc1` belongs -5.36%.
With `CC1(C)Oc2ccc3ccc(=O)oc3c2C(N2CCCCC2)C1O` (stereo not shown), the “% Inhibition @ 10 uM” value is listed as 2.1%.
To `Fc1ccc(N2N=C(c3ccc(Br)cc3)CC2c2cccs2)c(F)c1` (stereo not shown) belongs 1.91%; to `COc1ccc(C2C(C(=O)Nc3ccccc3C)=C(C)Nc3ncnn32)c(OC)c1` (stereo not shown), 4.75%.
As to `OC1=C2C(=Nc3[nH]nc(-c4ccccc4)c3C2c2cccs2)CCC1` (stereo not shown), the “% Inhibition @ 10 uM” value is listed as -0.326%.
With `NC12CC3CC(C1)CC(C(=O)O)(C3)C2`, the “% Inhibition @ 10 uM” value was 0.526%.
To `Cc1ccc(C)c(Cn2cc(C=O)c3ccccc32)c1` belongs -2.72%; to `CC(NC(=O)C1CCN(S(=O)(=O)c2ccc(Br)s2)CC1)c1ccccc1` (stereo not shown), -2.56%; to `COc1ccc(C2=NN(CC(=O)NCCCN(C)Cc3ccccc3)C(=O)CC2)cc1`, -3.58%.
To `COc1cc2c(cc1OC)C(c1cc(OC)c(OC)cc1[N+](=O)[O-])NCC2` (stereo not shown) belongs -2.59%.
To `COc1ccc(N(C(C)C(=O)N(C)Cc2ccccc2)S(C)(=O)=O)cc1` (stereo not shown) belongs -0.69%.
Turning to `COc1ccc(-c2csc3ncn(CC(=O)Nc4sc5c(c4C#N)CCC5)c(=O)c23)cc1OC`, the “% Inhibition @ 10 uM” value is reported as -4.76%.
`CC(C)(C)NCCCOc1cccc(Cl)c1Cl`: the “% Inhibition @ 10 uM” value turned out to be 3.48%.
Consider `c1ccc2c(c1)CC1(CCCCC1)N=C2N1CCOCC1`, for which the “% Inhibition @ 10 uM” value is -3.95%.
To `Cc1ccc2c(c1)-c1onc(C(=O)Nc3ccc(Cl)cn3)c1CO2` belongs -3.17%; to `O=C(Nc1ncc(Br)s1)C(Cc1ccccc1)n1cccc1` (stereo not shown), 2.6%.
With `O=C1CSC2N1CCNC21CCCCC1` (stereo not shown), the “% Inhibition @ 10 uM” value was -4.21% and -2.97%.
To `OCc1nc2ccccc2n1Cc1ccc(Cl)cc1` belongs 1.27%.
To `CCC(CC)C(=O)Nc1ccc2c(c1)C(=O)N(CCC(=O)O)C2=O` belongs -0.891%.
To `NC(=O)C1=CN(Cc2ccccc2)C=CC1` belongs -6.82%.
Turning to `COCCn1c(Cc2cccn2C)nnc1SCC(=O)NCc1ccc2c(c1)OCO2`, the “% Inhibition @ 10 uM” value is listed as -1.84%.
To `NC1=NC2(CCCCC2)n2c(nc3ccccc32)N1` belongs -1.72%; to `Cc1ccc(-n2nc(C)c(CCC#N)c2O)cc1`, -2.73%; to `CCN(CC)C(=O)C1c2ccccc2C(=O)N(C2CCCC2)C1c1cccs1` (stereo not shown), -5.3%.
To `COc1ccc(CC(=O)Nc2c3c(nn2-c2ccc(F)cc2)CS(=O)(=O)C3)cc1OC` belongs -4.18%; to `COc1cccc(NC(=O)c2ccncc2)c1`, -0.294%; to `COc1ccc2[nH]c(C)c(CCNC(=S)NCc3ccccc3)c2c1`, -0.431%.
To `CC(CNC(=O)Cc1ccccc1)NC(=O)Cc1ccccc1` (stereo not shown) belongs -2.99%; to `CCOc1ccccc1N(CC(=O)NCc1ccccc1)S(C)(=O)=O`, -2.8%; to `COC(=O)c1ccc(CN2CCCCCC2)cc1`, -3.5%.
Take `O=C(NCc1ccc(F)cc1)c1nc(-c2cccs2)no1`: the “% Inhibition @ 10 uM” value is given as -4.42%.
To `Cc1oc(N)c(C#N)c1C` belongs 1.46%.
To `COCCCNC(=O)/C(C#N)=C/c1c(Oc2ccc(Br)cc2)nc2c(C)cccn2c1=O` belongs -3.23%; to `Cc1nc2ccccc2n1C(=O)c1ccc(Cl)cc1`, -0.192%.
For `O=C(/C=C/c1ccc(F)cc1)NC(=S)N1CCCCC1`, the “% Inhibition @ 10 uM” value is listed as -2.59%.
To `O=C(Nc1ccccc1Br)c1ccc(F)cc1` belongs -0.294%; to `COc1ccc(S(=O)(=O)NCC(=O)Nc2ccc(Oc3ccccc3)cc2)cc1`, 3.37%.
